# Measured values from PubChem BioAssay AID1347165 (National Center for Advancing Translational Sciences (NCATS), 2019).
# Out of some 220,000 compounds screened, about 5,700 (2.6%) were called active. Inconclusive means that the source gave no clear call. Such entries were picked first, then a sample of the others. Calls follow the shape of the dose curve; as a rule, active = well fitted inhibition curve with a large enough effect; inconclusive = small, poorly fitted or top-dose-only effect; inactive = no such curve, though single readings can be large or run the other way. Potencies beside an inconclusive call are fits to weak or partial responses and may not hold up.
# Target: Lysine-specific demethylase 5B (Homo sapiens) (UniProt Q9UGL1)
# UniProt Q9UGL1, sequence (Q9UGL1 whole entry, looked up): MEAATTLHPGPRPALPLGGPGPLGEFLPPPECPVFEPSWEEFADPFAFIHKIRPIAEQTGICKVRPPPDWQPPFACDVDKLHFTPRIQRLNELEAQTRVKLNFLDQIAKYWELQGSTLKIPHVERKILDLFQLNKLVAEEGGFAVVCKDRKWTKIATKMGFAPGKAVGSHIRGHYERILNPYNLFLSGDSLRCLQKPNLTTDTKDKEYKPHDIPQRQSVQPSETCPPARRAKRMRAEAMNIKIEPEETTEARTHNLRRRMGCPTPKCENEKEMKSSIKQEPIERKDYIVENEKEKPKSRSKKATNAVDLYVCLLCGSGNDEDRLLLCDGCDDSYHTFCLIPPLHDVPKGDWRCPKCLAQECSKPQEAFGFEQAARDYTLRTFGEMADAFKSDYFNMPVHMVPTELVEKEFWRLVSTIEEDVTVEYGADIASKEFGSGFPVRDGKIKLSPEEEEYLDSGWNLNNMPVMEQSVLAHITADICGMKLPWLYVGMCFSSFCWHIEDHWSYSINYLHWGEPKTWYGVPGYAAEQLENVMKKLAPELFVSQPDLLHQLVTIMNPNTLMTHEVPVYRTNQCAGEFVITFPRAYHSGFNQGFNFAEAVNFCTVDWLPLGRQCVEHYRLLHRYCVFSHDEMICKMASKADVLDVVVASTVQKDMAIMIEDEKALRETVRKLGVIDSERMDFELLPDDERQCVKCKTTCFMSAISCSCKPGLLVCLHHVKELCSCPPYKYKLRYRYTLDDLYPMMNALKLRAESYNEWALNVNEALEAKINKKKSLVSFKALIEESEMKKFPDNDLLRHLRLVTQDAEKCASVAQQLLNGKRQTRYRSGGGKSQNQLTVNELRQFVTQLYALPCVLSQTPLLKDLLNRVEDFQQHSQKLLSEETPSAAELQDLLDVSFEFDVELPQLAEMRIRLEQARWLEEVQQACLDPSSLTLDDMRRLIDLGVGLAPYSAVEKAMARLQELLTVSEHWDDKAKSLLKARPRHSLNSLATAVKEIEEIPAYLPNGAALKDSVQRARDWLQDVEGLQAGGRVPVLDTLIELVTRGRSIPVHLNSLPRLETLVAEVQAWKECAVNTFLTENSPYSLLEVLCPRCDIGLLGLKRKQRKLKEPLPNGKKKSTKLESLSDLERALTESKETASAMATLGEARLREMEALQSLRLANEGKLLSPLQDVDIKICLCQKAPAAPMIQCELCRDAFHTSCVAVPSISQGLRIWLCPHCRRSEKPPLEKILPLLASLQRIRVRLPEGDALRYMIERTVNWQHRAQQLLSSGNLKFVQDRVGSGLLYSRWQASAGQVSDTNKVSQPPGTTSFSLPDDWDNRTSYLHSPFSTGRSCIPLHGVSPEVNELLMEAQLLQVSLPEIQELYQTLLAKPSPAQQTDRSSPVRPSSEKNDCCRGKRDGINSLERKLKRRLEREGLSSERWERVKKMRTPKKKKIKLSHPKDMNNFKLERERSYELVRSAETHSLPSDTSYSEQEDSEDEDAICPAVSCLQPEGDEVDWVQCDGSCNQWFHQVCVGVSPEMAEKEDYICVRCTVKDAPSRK
# Assay: Primary screen for KDM5B Histone Demethylases FDH-coupled qHTS; also: nearly all actives have a fitted effect of over 70% in size; as to activity change, negative = inhibition: 0% is about no effect
# Settings: FDH-coupled NADH fluorescence (FDH is formaldehyde dehydrogenase); activity change, negative = inhibition: at 57.7 µM (top of the series) unless noted
# Outline: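 Measured: NADH fluorescence change, 30 min, RT. System: KDM5BΔAP 200 nM final, H3K4me3 peptide, α-KG, Fe(II), ascorbate, NAD⁺ plus FDH, pH 7.5 HEPES. Compounds: titrated, 10 min pre-incubation with enzyme.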
# Potency is read from the fitted curve at half-maximal effect; tags tell the direction and shape of the fitted curve.
SMILES,Potency,"activity change, negative = inhibition"
O=C(NC1CCN(C(=O)N2CC3CC(C2)[C@H]2CCCC(=O)N2C3)CC1)c1n[nH]c2ccccc12 (some centres undefined),"inconclusive: 39.8 µM [inhibitor, single point]",
O=C(CSC1=Nc2ccccc2C2=NC(c3ccccc3)C(=O)N12)Nc1cc(F)ccc1F (centres undefined),,inactive: -26%
COc1cc(OC)c(NC2=CC(=O)C(=O)c3ccccc32)cc1Cl,"inconclusive: 2 µM [inhibitor, full curve, poor fit]",
Cc1ccc(N(C)/N=C/c2ccc(Cl)cc2Cl)nn1,"inconclusive: 25.1 µM [inhibitor, partial curve, poor fit]",
CCOc1ccc(Sc2cc(C(=O)NCc3ccc(F)cc3)c3ccccc3n2)cc1,"inconclusive: 17.8 µM [inhibitor, partial curve, poor fit]",
Cc1ccc(NC(=O)N2CCc3c(c4ccccc4n3CC3CC3)C2)cc1,active: 22.4 µM,
CCN(C(=O)C1CCCN(S(=O)(=O)c2c(C)noc2/C=C/N(C)C)C1)c1cccc(C)c1 (centres undefined),"inconclusive: 25.1 µM [inhibitor, partial curve, poor fit]",
COc1ccc(NC(=S)NNC(=S)Nc2cccc(C(F)(F)F)c2)cc1,"inconclusive: 31.6 µM [inhibitor, single point]",
O=C(NC[C@H]1O[C@H](Cc2cc(COc3ccccc3)on2)CC[C@@H]1O)c1ccccc1,"inconclusive: 56.2 µM [inhibitor, single point]",
O=C(NCc1ccco1)c1ccc2c(c1)N(Cc1ccc(Cl)cc1)C(=O)c1ccccc1S2=O (centres undefined),"inconclusive: 5.01 µM [inhibitor, full curve, poor fit]",
O=C(C1CC1)N1CCC2(CC1)CC(N1CCCC1)CCO2 (centres undefined),"inconclusive: 31.6 µM [inhibitor, partial curve, poor fit]",
COC(=O)[C@@H]1Cc2c([nH]c3ccccc23)[C@@H]2C[C@@H](NC(C)C)C[C@@H](c3ccc(F)cc3)N12,"inconclusive: 15.8 µM [inhibitor, partial curve, poor fit]",
CCOC(=O)c1ccc(NC(=O)CC2C(=O)OCCN2CC)cc1 (centres undefined),"inconclusive: 2 µM [inhibitor, partial curve, poor fit]",
CC(C)c1nccn1CCCNC(=O)c1ccc(NC2CCC(O)CC2)nc1 (centres undefined),active: 28.2 µM,
O=C(NCc1ccc(Cl)cc1)c1cccn2cncc12,"inconclusive: 35.5 µM [inhibitor, partial curve, poor fit]",
CCc1nnc(SC(CC)C(=O)Nc2cccc(OC)c2)c2cc3oc(C)cc3n12 (centres undefined),"inconclusive: 39.8 µM [inhibitor, single point]",
Cc1ccc(Sc2c(C)nn(C(C)(C)C)c2OC(=O)C(C)(C)C)cc1,"inconclusive: 22.4 µM [inhibitor, partial curve, poor fit]",
O=C(C1=NOC2CN(C(=O)C3CC3)CC12)N1CCN(c2ncccn2)CC1 (centres undefined),"inconclusive: 79.4 µM [inhibitor, partial curve]",
Cc1c(Br)c2ccccc2n1CC(=O)NCC(=O)N(C)C,,inactive: -2.58%
CC(C)CN1C(=O)c2cccn2CC1C(=O)NC1CCCC1 (centres undefined),"inconclusive: 31.6 µM [inhibitor, single point]",
CCc1ccc(CN(Cc2ccco2)c2cnc(S(C)(=O)=O)nc2C(=O)Nc2ccccc2Cl)cc1,"inconclusive: 12.6 µM [inhibitor, partial curve, poor fit]",
COC(=O)Cc1c(C)c2c(OCc3nn[nH]n3)cc(C)cc2oc1=O,"inconclusive: 25.1 µM [inhibitor, partial curve, poor fit]",

SMILES,Potency,"activity change, negative = inhibition"
Cc1ccc(CNC(=O)CC(C)S(=O)(=O)c2cc3c(cc2C)NC(=O)CO3)cc1 (centres undefined),,inactive: -4.27%
CSC1=NC2(CCN(C(=O)NC3CCCCC3)CC2)N=C1c1ccc(C)c(C)c1,,inconclusive: -30.4% [inhibitor] [at 11.5 µM]
Cc1nnc2sc(-c3ccc(CNC(=O)C(C)(C)Oc4ccc(Cl)cc4)cc3)nn12,,inactive: -2.98%
O=C(NCc1coc(-c2cccs2)n1)c1cccc(C(F)(F)F)c1,"inconclusive: 20 µM [inhibitor, partial curve, poor fit]",
COc1ccc(-c2nnc(SCc3cn4cccc(C)c4n3)o2)cc1OC,,inactive: -6.48%
Cc1c(C(=O)O)sc2ccsc12,,inactive: 17.7%
Cc1cccc(NC(=O)c2nnn(CC(=O)Nc3ccc(C(C)C)cc3)c2N)c1C,"inconclusive: 28.2 µM [inhibitor, partial curve, poor fit]",
CCN(CC)S(=O)(=O)c1ccc(=O)n(Cc2noc(C)n2)c1,,inactive: 10.2%
COc1cc(C(=O)NCC(c2cccs2)S(=O)(=O)c2ccc(F)cc2)cc(OC)c1OC (centres undefined),"inconclusive: 2.82 µM [inhibitor, partial curve, poor fit]",
COc1cc2cc(CNc3ccc(C)cc3)c(=O)n(CC(=O)Nc3ccc(F)cc3F)c2cc1OC,"inconclusive: 14.1 µM [inhibitor, partial curve, poor fit]",
CCCNC(=O)c1ccc(CSc2nc3cccnc3n2Cc2ccc(OC)cc2)cc1,"inconclusive: 39.8 µM [inhibitor, single point]",
Cc1cccc(OCC(=O)Nc2ccc(Cl)c(-c3nc4ncccc4o3)c2)c1C,"inconclusive: 25.1 µM [inhibitor, partial curve, poor fit]",
CC1(c2ccccc2)N(Cc2ccccc2)C(=O)OC12CCN(C(=O)Cc1ccc(O)cc1)CC2 (centres undefined),"inconclusive: 25.1 µM [inhibitor, partial curve]",
COc1nc2ccccc2nc1N1CCC(C(=O)Nc2ccc(F)cc2)CC1,,inactive: -8.23%
Cc1ccc(C2c3[nH]c4ccccc4c3CCN2C(=O)c2cccc(C)c2)cc1 (centres undefined),"inconclusive: 25.1 µM [inhibitor, single point]",
O=C(NC1CCCN(c2cc(-c3ccc(F)cc3)[nH]n2)C1)c1ccc(C(F)(F)F)cc1 (centres undefined),"inconclusive: 10 µM [inhibitor, partial curve, poor fit]",
Cc1oc(-c2nc(C#N)c(NC(C)C)o2)cc1S(=O)(=O)N(C)C,"inconclusive: 25.1 µM [inhibitor, partial curve, poor fit]",
CCN(C(=O)C(C)S(=O)(=O)Cc1cccc(Cl)c1)c1ccccc1 (centres undefined),,inactive: 13.7%
CN(C)C(=O)c1cccc2c1CCN2C(=O)C1CC1,,inactive: -13.1%
CCC(C)NC(=O)c1ccccc1NC(=O)CN1C(=O)c2cccc3cccc1c23 (centres undefined),"inconclusive: 28.2 µM [inhibitor, single point]",
COc1ccc(CNC(=O)C[C@@H]2C[C@H]3O[C@H](CNCc4cnccc4C(F)(F)F)[C@@H](O)[C@H]3O2)cc1,,inactive: -10.2%
CC(C)(C)c1cc(C[C@@H]2C[C@H](NCc3ccccn3)C2(C)C)no1,"inconclusive: 39.8 µM [inhibitor, partial curve, poor fit]",

SMILES,Potency,"activity change, negative = inhibition"
c1ccc(Nc2c(-c3c[nH]c4ccccc34)nc3ccccn23)cc1,"inconclusive: 35.5 µM [inhibitor, partial curve, poor fit]",
COc1ccc(N2CCCCS2(=O)=O)cc1S(=O)(=O)NCCc1ccccc1F,,inactive: 11.8%
CCN1C(=O)N(Cc2cccc(OC)c2)C(=O)C12CCN(Cc1nc3ccccc3n1C)CC2,"inconclusive: 25.1 µM [inhibitor, partial curve, poor fit]",
CCc1ccc(NC(=O)CCn2nc(-c3ccccc3OC)c3c(C)cc(C)nc32)cc1,"inconclusive: 39.8 µM [inhibitor, single point]",
COc1ccccc1OC(C)C(=O)Nc1ccc(-c2nc3ccccc3s2)cc1 (centres undefined),"inconclusive: 2.24 µM [inhibitor, full curve, poor fit]",
O=C(CCC(=O)c1ccc2c(c1)CCC2)NC1CCCc2ccccc21 (centres undefined),,inactive: 15.2%
Cn1c(CNC(=O)CC2CCN(S(C)(=O)=O)C2)nc2ccccc21 (centres undefined),,inactive: 5.19%
O=C(CC12CC3CC(CC(Br)(C3)C1)C2)OCc1cc([N+](=O)[O-])cc2c1OCOC2,,inactive: 18.5%
COc1ccc2cc(C3CN(Cc4nc(C(N)=O)no4)CCO3)ccc2c1 (centres undefined),active: 17.8 µM,
COC[C@@H]1CN(c2ncccn2)C[C@H]1C(=O)N(C)Cc1ccco1,active: 17.8 µM,
COc1ccccc1C(=O)N1CCCN(c2cc(-c3ccc(Br)cc3)[nH]n2)CC1,"inconclusive: 14.1 µM [inhibitor, partial curve, poor fit]",
COCC1CN(C(=O)c2ccc(OC)nc2OC)CC12CCNCC2 (centres undefined),"inconclusive: 4.47 µM [inhibitor, partial curve, poor fit]",
CC(O)CNc1nc2c(c(=O)n(C)c(=O)n2C)n1Cc1ccc(Br)cc1 (centres undefined),,inactive: 7.8%
Cc1ccc(-n2ncc(C(=O)NCc3cccs3)c2C2CCN(C(=O)OC(C)(C)C)CC2)c(C)c1,,inconclusive: -32.7% [inhibitor]
CCOC(=O)c1c(C)[nH]c(CCC(=O)NCc2ccc(CC)cc2)c1C,"inconclusive: 1.58 µM [inhibitor, full curve, poor fit]",
Cc1ccccc1NC(=O)N1CCC(CCNC(=O)C2CC2)CC1,,inactive: 22.3%
CC(=O)c1cccc(NC(=O)Cn2nc(C)n3cccc3c2=O)c1,,inconclusive: -34% [inhibitor]
O=C(C1CC1)N1CCOC[C@H](Oc2ccccc2)C1,,inactive: 24.4% [at 115 µM]
COc1ccc2c(c1)cc(C(=O)NC(C)c1ccccc1)n2C (centres undefined),"inconclusive: 28.2 µM [inhibitor, partial curve, poor fit]",
CCN(CC)CCCNC(=O)c1ccc2c(=O)n(CCc3ccccc3)c(=O)[nH]c2c1,"inconclusive: 4.47 µM [inhibitor, partial curve, poor fit]",
